Reference: PubChem BioAssay AID624417 (National Center for Advancing Translational Sciences (NCATS), 2012)
About 6,400 (1.6%) of roughly 410,000 compounds were called active. Inconclusive means that the source gave no clear call. Such entries were picked first, then a sample of the others. Calls come from the whole dose curve; as a rule, active = well fitted inhibition curve with a large enough effect; inconclusive = small, poorly fitted or top-dose-only effect; inactive = no such curve, though single readings can be large or run the other way. Potencies beside an inconclusive call are fits to weak or partial responses and may not hold up.

Target: Glucagon-like peptide 1 receptor (Homo sapiens) (UniProt P43220)
UniProt P43220, sequence (P43220 whole entry, looked up): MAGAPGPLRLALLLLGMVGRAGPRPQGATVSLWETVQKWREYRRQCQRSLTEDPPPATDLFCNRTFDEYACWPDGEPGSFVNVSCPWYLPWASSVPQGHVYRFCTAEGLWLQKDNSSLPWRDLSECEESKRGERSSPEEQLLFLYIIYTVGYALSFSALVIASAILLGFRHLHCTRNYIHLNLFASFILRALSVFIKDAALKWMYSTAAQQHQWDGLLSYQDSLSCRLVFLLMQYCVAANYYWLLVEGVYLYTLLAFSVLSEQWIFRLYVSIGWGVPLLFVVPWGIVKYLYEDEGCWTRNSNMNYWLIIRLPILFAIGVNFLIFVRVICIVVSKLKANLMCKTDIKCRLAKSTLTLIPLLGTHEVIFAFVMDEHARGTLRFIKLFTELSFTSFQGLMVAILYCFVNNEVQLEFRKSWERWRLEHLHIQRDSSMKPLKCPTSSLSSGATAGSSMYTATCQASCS
Assay: qHTS of GLP-1 Receptor Inverse Agonists (Inhibition Mode); note: nearly all actives have a fitted effect of over 55% in size
Conditions: HEK293 GLP-1R CRE-luciferase, luminescence, 24 h; Potency: GLP-1R form is constitutively active unless noted; activity change, negative = inhibition: at 38.3 µM (top of the series) unless noted
Procedure, shortened: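 Stable HEK293 clone (constitutively active GLP-1R + cAMP-response luciferase); 200 cells/uL plated, 12 h pre-culture, compound 24 hr, 37 deg C/5% CO2; detection reagent 12 min RT; luminescence.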
% is set by controls: 0 for no effect and ±100 for the full control effect; potency is the fitted concentration of half-maximal effect; tags give direction and shape of the fitted curve.

SMILES | Potency | activity change, negative = inhibition
CCCc1nnc(NC(=O)CCC(=O)N2CCN(CCOC(c3ccccc3)c3ccccc3)CC2)s1 | inconclusive: 20 µM [inhibitor, single point] | 
COC(=O)C1=C(c2cccc(OCc3ccccc3)c2)C[C@@H]2CC[C@H]1N2C(=O)NCc1ccc(C(C)(C)C)cc1 | inconclusive: 5.62 µM [inhibitor, full curve] | 
COC(=O)C1=C(c2cccc(OCc3ccccc3)c2)C[C@@H]2CC[C@H]1N2C(=O)NCc1ccccc1 |  | inactive: -7.07%
c1ccc(Nc2ccc(Nc3ccccc3)cc2)cc1 |  | inconclusive: -65.6% [inhibitor] [at 38.3 µM, GLP-1R form is constitutively active]
Nc1ccc([N+](=O)[O-])cc1 | inconclusive: 28.2 µM [inhibitor, single point] | 
C[C@@H]1O[C@@H](O[C@@H]2C=C3CCC4C(CC[C@]5(C)[C@@H](c6ccc(=O)oc6)CC[C@]45O)[C@@]3(C)CC2)[C@H](O)[C@H](O)[C@H]1O (some centres undefined) |  | inactive: -90.8% [at 38.3 µM, GLP-1R form is constitutively active]
COC1C(O)C(C)OC(OC2CCC3(C=O)C(CCC4C3CCC3(C)C(C5=CC(=O)OC5)CCC43O)C2)C1O (centres undefined) |  | inactive: -95.1%
C[C@@H]1C[C@@H]([C@H](O)CC2CC(=O)NC(=O)C2)C(=O)[C@@H](C)C1 | active: 0.794 µM [setting not given] | 
Cc1sc2ncnc(N3CCC(C(=O)Nc4ccc(C#N)c(Cl)c4)CC3)c2c1C | inconclusive: 14.1 µM [inhibitor, single point] | 
Cc1ccc(-n2c(/C=C/c3ccccc3)nc3ccccc3c2=O)cc1C | inconclusive: 28.2 µM [inhibitor, single point] | 
Cc1ccc2scc(N3CCN(C)CC3)c(=O)c2c1 |  | inactive: 21%
COCCNC(=O)c1c(NC(=O)c2ccco2)n(Cc2ccccc2)c2nc3ccccc3nc12 |  | inactive: 11.8%
CC[C@H]1CN(C)CCc2c([nH]c3ccccc23)C(=O)C[C@@H]1/C(=C\OC)C(=O)OC |  | inactive: 13.3%
CC(C)c1ccc(C(c2c(O)c3ccccc3oc2=O)c2c(O)c3ccccc3oc2=O)cc1 | inconclusive: 28.2 µM [inhibitor, single point] | 
COc1ccc(C2NCc3ccc4c(c3-n3cccc32)OCO4)cc1O (centres undefined) | inconclusive: 1 µM [inhibitor, full curve, poor fit] | 
Cc1ccc(NP(=O)(Oc2ccccc2F)Oc2ccccc2F)cc1C | inconclusive: 5.62 µM [inhibitor, partial curve, poor fit] | 
CCn1nc(-c2ccccc2)nc2c(=O)n(C)c(=O)nc1-2 | active: 5.01 µM [setting not given] | 
O=C(CSc1ccccc1)Nc1ccc(C(=O)Nc2cccc(O)c2)cc1 | inconclusive: 28.2 µM [inhibitor, single point] | 
CCOC(=O)C1(CCc2ccccc2)CCN(Cc2cccc3cnccc23)CC1 | inconclusive: 10 µM [inhibitor, partial curve, poor fit] | 
Cc1cc(C(C#N)c2ccc(Cl)cc2)c(Cl)cc1NC(=O)c1cc(I)cc(I)c1O (centres undefined) | inconclusive: 12.6 µM [inhibitor, single point] | 

SMILES | Potency | activity change, negative = inhibition
Cc1ccc(N2CC(C(=O)Nc3cc(S(=O)(=O)N4CCCCC4)ccc3C)CC2=O)cc1 (centres undefined) | inconclusive: 12.6 µM [inhibitor, single point] | 
CC(C)(C)c1cc(C=C(C#N)C#N)cc(C(C)(C)C)c1O | inconclusive: 0.891 µM [inhibitor, full curve, poor fit] | 
CC(=O)Nc1cc(-c2cccc(CO)c2)cn2c(-c3cccc(C(F)(F)F)c3)cnc12 |  | inactive: 33.2% [at 38.3 µM, GLP-1R form is constitutively active]
CCOP(=O)(OCC)C(NCc1ccccc1)c1ccc(Br)cc1 (centres undefined) | inconclusive: 11.2 µM [inhibitor, partial curve, poor fit] | 
Cc1ccc(N/N=C/c2c(O)n(-c3ccccc3)c(=O)[nH]c2=O)cc1 | inconclusive: 3.55 µM [inhibitor, full curve, poor fit] | 
CCOC(=O)C1=C(c2ccccc2)OC(N)=C(C#N)C1C(C)C (centres undefined) | inconclusive: 5.62 µM [inhibitor, partial curve, poor fit] | 
O=c1c2ccccc2nc(CN2CCOCC2)n1-c1ccccc1F | inconclusive: 28.2 µM [inhibitor, single point] | 
COc1ccc(-[n+]2c(-c3ccccc3)cc(-c3ccccc3)cc2-c2ccccc2)cc1 | inconclusive: 1.78 µM [inhibitor, full curve, poor fit] | 
Cc1ccsc1C(=O)C1CCCN(Cc2cnc(N3CCCC3)s2)C1 (centres undefined) | inconclusive: 11.2 µM [inhibitor, single point] | 
COc1cc(C(=O)NCCSc2c(-c3ccccc3)[nH]c3ccccc23)cc(OC)c1OC | inconclusive: 28.2 µM [inhibitor, single point] | 
NC(Cc1ccc(O)cc1)C(=O)NN=Cc1ccc(N(CCCl)CCCl)cc1 (centres undefined) | inconclusive: 0.562 µM [inhibitor, full curve] | 
Cc1cc2ccccc2n1CCNC(=O)Cc1ccccc1 | inconclusive: 11.2 µM [inhibitor, partial curve] | 
COc1cccc(CN2CC=C(c3ccc(F)cc3)CC2)c1 | inconclusive: 10 µM [inhibitor, partial curve, poor fit] | 
N#CCN1CCN(c2ccc(C(F)(F)F)cc2)CC1 | inconclusive: 3.55 µM [inhibitor, full curve, poor fit] | 
CCN(CC)C(=O)c1ccc(NC(=O)c2cc(S(=O)(=O)N3CCCCCC3)ccc2OC)cc1 | inconclusive: 10 µM [inhibitor, partial curve] | 
CCN(C(=O)COC(=O)c1cc(C)n(C2CC2)c1C)c1ccccc1 | inconclusive: 12.6 µM [inhibitor, partial curve, poor fit] | 
CN(C)CCN(CC1CCCN(Cc2ccccc2F)C1)C(=O)Cc1c(F)cccc1F (centres undefined) | inconclusive: 10 µM [inhibitor, single point] | 
CCCCOC(=O)c1ccccc1C(=O)OCCCC | inconclusive: 28.2 µM [inhibitor, single point] | 
CCCCOCCCn1c(N)c(C(=O)OC(C)COC)c2nc3ccccc3nc21 (centres undefined) | inconclusive: 28.2 µM [inhibitor, single point] | 
COc1ccc(NP(=O)(Oc2ccccc2OC)Oc2ccccc2OC)cc1 | inconclusive: 7.94 µM [inhibitor, partial curve, poor fit] | 

SMILES | Potency | activity change, negative = inhibition
COc1cccc(Oc2coc3cc(OC(=O)N(C)C)ccc3c2=O)c1 | inconclusive: 11.2 µM [inhibitor, single point] | 
Cc1ccc([C@H]2C[C@@H](n3cc(C4CC4)nn3)[C@H](O)CN2Cc2cccs2)cc1 | inconclusive: 10 µM [inhibitor, partial curve, poor fit] | 
CC(C)c1ccc(NC(=O)C2CCC(CNS(=O)(=O)c3ccc4c(c3)CCCC(=O)N4)CC2)cc1 (centres undefined) | inconclusive: 10 µM [inhibitor, single point] | 
CC(=O)O[C@@]12CO[C@@H]1C[C@H](O)[C@@]1(C)C(=O)[C@H](O)C3=C(C)[C@@H](OC(=O)[C@H](O)[C@@H](NC(=O)c4ccccc4)c4ccccc4)C[C@@](O)([C@@H](OC(=O)c4ccccc4)C12)C3(C)C (some centres undefined) | inconclusive: 0.316 µM [inhibitor, full curve, poor fit] | 
Cn1c(O)c(C(=NCCc2c[nH]c3ccccc23)c2ccccc2)c(=O)n(C)c1=O |  | inactive: 3.48%
CCOC(=O)CC(SP1(=S)OCC2(CCCCC2)CO1)C(=O)OCC (centres undefined) | inconclusive: 28.2 µM [inhibitor, single point] | 
Cc1nn(-c2ccccc2)c(Cl)c1/C=C(/CC(=O)O)c1nc2ccccc2s1 | inconclusive: 28.2 µM [inhibitor, single point] | 
C[C@H]1CN([C@@H](C)CO)C(=O)CCCn2nncc2CO[C@H]1CN(C)C(=O)Oc1ccc2ccccc2c1 |  | inactive: 11.1%
O=c1c2ccccc2nc(-c2ccccc2)n1-c1cccc(O)c1 | active: 1 µM | 
Cc1nn(Cc2ccccc2Cl)c(Cl)c1C(=O)OCC(=O)NCc1ccco1 |  | inactive: 1.26%
CC(Nc1cc(C)cc(C)c1)=[N+](C)CCNS(=O)(=O)c1ccc(Cl)cc1 | inconclusive: 10 µM [inhibitor, partial curve, poor fit] | 
CN1/C(=C\C=Nc2ccccc2)C(C)(C)c2ccccc21 | inconclusive: 28.2 µM [inhibitor, single point] | 
CCc1ccc(NC(=O)c2ccc3oc(=O)n(Cc4ccccc4)c3c2)cc1 | inconclusive: 11.2 µM [inhibitor, single point] | 
COc1ccc(-n2c(-c3ccccc3)nc3ccccc3c2=O)cc1 | inconclusive: 28.2 µM [inhibitor, single point] | 
Cc1ccc2c(c1)C1CN(C)CCC1N2C(=O)Nc1cccc(C(F)(F)F)c1 (centres undefined) | inconclusive: 3.16 µM [inhibitor, full curve, poor fit] | 
COC(=O)C1=C(c2ccc(Cl)c(C(F)(F)F)c2)C[C@@H]2CC[C@H]1N2C(=O)NCCOc1ccccc1Cl | inconclusive: 10 µM [inhibitor, partial curve, poor fit] | 
COc1ccc(C(=O)c2nc3ccccc3n2C(C)C)cc1 | inconclusive: 28.2 µM [inhibitor, single point] | 
COc1cc2c(cc1OC)[C@@H]1C(=O)c3ccc4c(c3O[C@@H]1CO2)C[C@H](C(C)C)O4 | inconclusive: 1 µM [inhibitor, full curve, poor fit] | 
Cc1ccc(CN2CCCC(C(=O)c3cccc(C(F)(F)F)c3)C2)o1 (centres undefined) | inconclusive: 12.6 µM [inhibitor, single point] | 
